Values joined by “and” are separate entries in the source; they are usually repeats but may differ in a detail not shown here. Equal values may be shown once. The whole screen tested about 16,000 compounds, of which about 40 (0.2%) were called active. Another 1% or so got no clear call; they are omitted. Calls come from the whole dose curve; as a rule, active = well fitted activation curve with a large enough effect; inconclusive = small, poorly fitted or top-dose-only effect, or another doubt; inactive = no such curve, though single readings can be large or run the other way. Some of the results follow.

For 52 molecules, activation results are on record in PubChem BioAssay AID1645887 (National Center for Advancing Translational Sciences (NCATS), 2021).
% is set by controls: 0 for no effect and ±100 for the full control effect.

Sequence of UniProt Q8WZA2 (Q8WZA2 whole entry, looked up): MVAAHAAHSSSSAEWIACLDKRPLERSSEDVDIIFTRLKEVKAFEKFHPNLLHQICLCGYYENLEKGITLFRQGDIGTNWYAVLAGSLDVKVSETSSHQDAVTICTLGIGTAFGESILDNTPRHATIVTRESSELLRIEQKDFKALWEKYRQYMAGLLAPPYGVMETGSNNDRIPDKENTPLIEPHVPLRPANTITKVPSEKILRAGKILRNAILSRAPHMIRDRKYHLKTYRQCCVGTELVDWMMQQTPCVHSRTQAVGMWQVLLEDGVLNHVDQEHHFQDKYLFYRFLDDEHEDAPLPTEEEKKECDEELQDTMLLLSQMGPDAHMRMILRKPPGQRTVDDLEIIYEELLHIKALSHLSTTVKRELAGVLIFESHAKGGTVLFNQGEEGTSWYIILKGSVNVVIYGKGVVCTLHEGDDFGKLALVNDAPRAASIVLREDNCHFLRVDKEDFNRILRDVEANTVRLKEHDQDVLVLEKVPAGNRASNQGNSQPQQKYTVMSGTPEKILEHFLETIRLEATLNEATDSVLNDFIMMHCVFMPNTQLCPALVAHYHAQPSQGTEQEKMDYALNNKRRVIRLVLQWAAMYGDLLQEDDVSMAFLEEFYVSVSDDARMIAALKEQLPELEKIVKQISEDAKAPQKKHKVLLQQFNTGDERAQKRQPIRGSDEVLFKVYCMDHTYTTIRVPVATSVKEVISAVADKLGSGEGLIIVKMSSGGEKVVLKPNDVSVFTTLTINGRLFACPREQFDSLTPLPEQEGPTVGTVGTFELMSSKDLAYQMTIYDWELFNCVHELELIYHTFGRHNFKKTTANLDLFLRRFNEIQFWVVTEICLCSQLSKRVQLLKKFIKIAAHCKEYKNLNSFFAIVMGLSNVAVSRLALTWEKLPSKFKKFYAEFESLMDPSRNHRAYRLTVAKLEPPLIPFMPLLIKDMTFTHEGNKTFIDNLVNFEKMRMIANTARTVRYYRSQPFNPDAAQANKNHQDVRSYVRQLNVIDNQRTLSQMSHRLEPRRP

The target of this assay is Rap guanine nucleotide exchange factor 4 (Homo sapiens) (UniProt Q8WZA2). Description: Validation qHTS for agonist of cAMP-regulated guanine nucleotide exchange factor 4 (EPAC2).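 Note: exchange makes BODIPY-GDP fluorescence drop when released from Rap1B; series mostly up to about 150 µM.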 Particulars: EPAC2 Rap1B BODIPY-GDP exchange, fluorescence; activation: active compounds read high. The method in brief:
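Signal normalized against 6.5 mM cAMP as agonist control. Mix of EPAC2 (100 nM), RAP1B-BODIPY-GDP (250 nM) and GDP (50 uM) was read kinetically at 480/540 nm, every 5 min over 30 min, after 5 min room-temperature incubation with compound.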
As to `OC(c1ccc2c(c1)CN(Cc1ccc3nsnc3c1)CCO2)C1CCCCC1` (configuration not stated), the activation is inactive: -13.2%. `COc1ccc2c(c1)CCc1cnc(-n3ncc(C(=O)NCc4cccnc4)c3C3CC3)nc1-2`: the activation was inactive: -16.8%. With `CC[C@@H]([C@H](C)O)n1ncn(-c2ccc(N3CCN(c4ccc(OCC5CO[C@@](Cn6cncn6)(c6ccc(F)cc6F)C5)cc4)CC3)cc2)c1=O` (some centres not stated), the activation is inactive: 8.36%. To `CN1CCC(=O)N([C@H](CN=[N+]=[N-])Cc2ccccc2)CC1` belongs inactive: 1.84%; to `Cc1c(C(=O)N(C)C2CCOC2)sc2ncnc(NCC3(c4ccccc4)CCOCC3)c12` (configuration not stated), inactive: -18.9%. Regarding `O=C(O)CCCCC1CCSS1` (configuration not stated), the activation is inactive: -1.31% and inactive: -8.59% and inactive: -6.14%. To `COCC(=O)O[C@]1(CCN(C)CCCc2nc3ccccc3[nH]2)CCc2cc(F)ccc2[C@@H]1C(C)C` belongs inactive: -26.6% and inactive: -29.2%; to `O=C(N[C@@H]1CCC(=O)N(CC[C@H](Sc2ccccc2)c2ccccc2)CC1)OCc1ccccc1`, inactive: -29%. Turning to `CCN(CC)Cc1cc(Nc2ccnc3cc(Cl)ccc23)ccc1O`, the activation was inactive: -15.3% and inactive: -6.09%. With `C=CCN1c2ccc(Br)cc2C(=O)CS1(=O)=O`, the activation is inactive: -7.43%. For the molecule `CC(C)=CCC/C(C)=C/CC/C(C)=C/CC/C(C)=C/CO`, the activation was inactive: -23.3% and inactive: -24.2%. For the molecule `COc1cccc(CN2C(=O)NC(C)(C3CCN(Cc4cnn(C)c4C)CC3)C2=O)c1OC` (configuration not stated), the activation was inactive: -8.25%. With `COc1ccc(CN2CCOc3ccc(C(O)c4cccnc4)cc3C2)cc1O` (configuration not stated), the activation was inactive: -3.36%. In the case of `CCN(CC)S(=O)(=O)c1ccc(C(=O)O)cc1`, the activation is inactive: -1.33%. Consider `COc1cccc(-c2nc(NCCN3CCOCC3)c3ccccc3n2)c1`, for which the activation was inactive: -8.26%. Regarding `COC(=O)C[C@H]1c2ccccc2S(=O)(=O)N1C(C)C`, the activation is inactive: -12.6%.

As to `Oc1cc2c(c(Cl)c1O)CCNCC2c1ccccc1` (configuration not stated), the activation was inactive: 3.91% and inactive: -26%. For the molecule `CC(=O)OC1CC(OC(C)=O)[C@]2(C)C(CC(=O)[C@]3(C)C2CC[C@@]2(C)C(C(=O)O)OC(=O)C4OC423)C1(C)C` (some centres not stated), the activation was inactive: -5.04%. As for `CC1(C)OC2CC3C4CC(F)C5=CC(=O)C=C[C@@]5(C)[C@@]4(F)C(O)C[C@@]3(C)[C@]2(C(=O)CO)O1` (some centres not stated), the activation was inactive: -8.67%. Turning to `O=C1CC[C@@H](C(=O)NCC2Cc3cc(Cl)cc(-c4ccc5[nH]ccc5c4)c3O2)N1` (some centres not stated), the activation is inactive: -5.96%. Turning to `COc1cc(-c2c(-c3ccc4c(c3)OCO4)noc2-c2ccsc2)cc(OC)c1OC`, the activation is inactive: -31.8%. `CCCCCCCCCCOCCC(=O)O`: the activation was inactive: 1.63%. Consider `COc1ccc(CNc2cc(-c3ccccc3OC)ncn2)c(OC)c1`, for which the activation is inactive: -8.46%. As for `Cc1cc(C(=O)Nc2ccccc2-c2nc(CNC(=O)C3(C)CCCCC3)c(C)o2)c(C)o1`, the activation was inactive: -7.75%. Turning to `O=C(O)[C@H]1CN[C@H](C(=O)O)C1`, the activation is inactive: -10.5%. Take `COc1cc(CN2CCOc3ccc(CN4CCC(O)(c5cccnc5)CC4)cc3C2)cc(OC)c1`: the activation is inactive: -4.81%.

With `CN(C)c1ccc(/C=C/c2cc3ccccc3c[n+]2C)cc1`, the activation was inactive: -10.3%. Then `O=C(CCCN1CCC(O)(c2cccc(C(F)(F)F)c2)CC1)c1ccc(F)cc1`, with inactive: -10.5% and inactive: -13.7%; and `CCC1C(=O)NCCN1Cc1ccc2c(c1)CN(Cc1ccc(OC)cc1OC)CCO2` (configuration not stated), with inactive: -1.23%; and `CN(C)c1ccc(/C=C/c2cc3ccccc3cn2)cc1`, with inactive: -23.7%.

Take `CN(C)CCCn1cc(C2=C(c3c[nH]c4ccccc34)C(=O)NC2=O)c2ccccc21`: the activation is inactive: -11.3%. As for `COc1ccc(S[C@@H]2C[C@@H](C(=O)Nc3ccc4nccnc4c3)N(C3Cc4ccccc4C3)C2)cc1`, the activation was inactive: -15.7%. Consider `COc1ccccc1C(=O)N[C@@H]1c2ccccc2C2(CCN(Cc3ccc(C)o3)CC2)[C@H]1O`, for which the activation is inactive: -0.971%. As for `CC(=O)N1CCC2(CCCN(c3cccc(-c4ccccc4)c3)C2)CC1`, the activation was inactive: -24.9%. Take `COc1nc(N)nc2c1ncn2[C@@H]1O[C@H](CO)[C@@H](O)[C@@H]1O`: the activation was inactive: 16.1%. With `COC(=O)N1CCC2(CC1)CCN(c1ncccn1)CC2`, the activation is inactive: -4.41%. Take `CN(C)c1ccc(-c2cncnc2-n2ccnc2)cc1`: the activation was inactive: -17.4%. In the case of `CC(C)(C)CC(C)(C)c1ccc(O)c(-n2nc3ccccc3n2)c1`, the activation is inactive: 2.69%.

Turning to `Nc1nc2c(ncn2C2CC(O)C(CO)O2)c(=O)[nH]1` (configuration not stated), the activation is inactive: -3.58%.

Take `CN1C(=O)CN2CCc3ccccc3C2c2cc(Cl)ccc21` (configuration not stated): the activation is inactive: 12%.

`COc1cc(=O)n2c(c1C(=O)NCc1ccco1)CCN(C(=O)c1ccccc1-c1ncc[nH]1)CC2`: the activation was inactive: -9.86%. In the case of `COc1cc(-c2noc(C)c2C(=O)NCCO)cc(OC)c1OC`, the activation was inactive: -10.5%. With `O=C1NCCN1CCN1CCC(c2cn(-c3ccc(F)cc3)c3ccc(Cl)cc23)CC1`, the activation is inactive: 14.6% and inactive: 3.88%. On to `O=C1CCC(N2C(=O)c3ccccc3C2=O)C(=O)N1` (configuration not stated), for which the activation is inactive: 2.83% [middle of 4 runs].

Consider `CCCCC[C@H]1CN(C2CCCCC2)C(=O)[C@@H]1CC(=O)NCc1ccccc1`, for which the activation was inactive: -37%. As to `NCCCC[C@@H](N)C(=O)O`, the activation was inactive: 2.13%.

Take `C[C@H](N)C(=O)N[C@@H](C)P(=O)(O)O`: the activation was inactive: 8.51%. To `CC(=O)Nc1ccc(SC[C@H](C)CN2CC[C@H](C(C)(C)C)CCC2=O)cc1` belongs inactive: -35.4%; to `COc1cc2c(cc1OC)C(=O)Cc1ccc3c(c1CN(C)CC2)OCO3`, inactive: -4.62% and inactive: -1.37%. For the molecule `COc1cccc(-c2ccc(O)c(CNCc3cccc(OC)c3OC)c2)n1`, the activation was inactive: -6.91%. With `CC(=O)OC1CC(OC(C)=O)[C@]2(C)C(CC(OC(C)=O)[C@@]3(C)C4=CC(=O)OC(c5ccoc5)[C@]4(C)CCC32)C1(C)C` (some centres not stated), the activation is inactive: -12.7%. Then `CN(C)c1ccc(-c2ccc3ncnc(N4CCNCC4)c3c2)cc1`, with inactive: -9.63%.
